# PubChem BioAssay AID492947 (National Center for Advancing Translational Sciences (NCATS), 2010)
# The campaign covered roughly 330,000 compounds. About 80 (0.02%) were called active. The shares of active, inactive and inconclusive entries below differ from those in the screen. Calls follow the shape of the dose curve; as a rule, active = well fitted activation curve with a large enough effect; inconclusive = small, poorly fitted or top-dose-only effect; inactive = flat fitted curve, though single readings scatter. No potency is given beside an inconclusive call; the fits are too rough.
# Biological target: Beta-2 adrenergic receptor (Homo sapiens) (UniProt P07550)
# UniProt P07550, sequence (P07550 whole entry, looked up): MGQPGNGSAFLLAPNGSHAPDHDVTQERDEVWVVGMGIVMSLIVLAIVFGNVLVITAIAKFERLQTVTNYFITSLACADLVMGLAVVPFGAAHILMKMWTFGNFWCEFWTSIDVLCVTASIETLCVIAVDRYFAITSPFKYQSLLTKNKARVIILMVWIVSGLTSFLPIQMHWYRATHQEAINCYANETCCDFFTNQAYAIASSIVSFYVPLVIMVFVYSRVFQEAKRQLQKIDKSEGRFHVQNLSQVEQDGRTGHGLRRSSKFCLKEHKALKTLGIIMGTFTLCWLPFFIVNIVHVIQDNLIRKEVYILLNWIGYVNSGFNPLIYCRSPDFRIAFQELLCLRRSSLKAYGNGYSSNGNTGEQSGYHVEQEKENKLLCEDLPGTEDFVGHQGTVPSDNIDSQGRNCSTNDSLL
# Assay: qHTS assay of beta-arrestin-biased ligands of beta2-adrenergic receptor; also: nearly all actives have a fitted effect of over 65% in size;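 as to activation: 0% = DMSO controls and full agonism = EC100 isoproterenol or metaproterenol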
# Conditions: beta-arrestin recruitment to beta2AR, cell-based reporter; series mostly up to 46.1 µM; activation: at the top concentration
# How it was run: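 Agonist activity is measured as luciferase luminescence downstream of beta-arrestin recruitment to recombinant beta2-AR in Tango cells. Exposure lasts 18 hr at 37 degrees C, and curves are categorized by r2, response size and activity.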
# Potency is read from the fitted curve at half-maximal effect; tags tell the direction and shape of the fitted curve.
Structure (SMILES),activation,Potency
CCOc1cc2[nH]c(=S)n(C3CC3)c(=O)c2cc1OCC,inactive: -0.696%,
Cc1ccc(CNS(=O)(=O)c2ccc(CN3C(=O)c4cccnc4C3=O)s2)o1,,"inconclusive [rising, single point]"
CC1(C)CC(C)(c2ccc(O)cc2O)N(c2cccc(Cl)c2)C(=S)N1 (configuration not stated),,"inconclusive [activator, partial curve]"
CCOC(=O)c1n[nH]n2c1nc(=S)c1ccccc12,inactive: 0.107%,
CCOc1ccc(/C(CCC(=O)O)=N/NC(=S)NC(C)C)cc1,,"inconclusive [rising, single point]"
CN(C)c1ccc(-c2nc3cc(N)ccc3o2)cc1,inactive: -0.549%,
COc1cnc(-c2ccccn2)nc1Oc1ccccc1,,"inconclusive [activator, full curve]"
COc1cccc(CNCc2cc(OC)cc(OC)c2)c1,inactive: 0.0718%,
CC(C)(C)c1ccc(C(=O)NC(=S)NCC2CCCO2)cc1 (configuration not stated),inactive: -0.939%,
Cc1cc(C)nc(SSc2nc(C)cc(C)n2)n1,,"inconclusive [rising, single point]"
O=C(COC(=O)c1n[nH]c(=O)c2ccccc12)NCc1ccccc1,,"inconclusive [rising, single point]"
O=C(COc1ccc(Br)cc1Cl)NC(=S)Nc1ccccn1,inactive: -0.86%,
Cn1c(=O)n(/N=C/c2ccccc2)c2ccccc21,,"inconclusive [rising, single point]"
Cn1cccc1C(=O)NC(=O)CSc1cccc[n+]1[O-],,"inconclusive [rising, single point]"
C=C(C)CNC(=S)N/N=C/c1c(F)cccc1F,,"inconclusive [rising, single point]"
CC(=O)NC(c1cc(Cl)c2cccnc2c1O)C1CC1 (configuration not stated),,"inconclusive [rising, single point]"
NC(=S)NN=C1c2ccccc2-c2ccccc21,,"inconclusive [activator, partial curve]"
C(=C\c1ccco1)/C1=NN(c2ccccc2)C(c2ccco2)C1 (configuration not stated),,"inconclusive [rising, single point]"
Cc1cccc(C(=O)Nc2ncc(CN3CCOCC3)s2)c1,,"inconclusive [rising, single point]"
CN1C(=O)c2ccc(NC(=O)CCS(=O)(=O)c3ccccc3)cc2C1=O,inactive: 0.279%,
Cn1nc(-c2ccc(C(=O)NCCO)cc2)c2ccccc2c1=O,,active: 5.62 µM
C(=N\N=C\c1cccnc1)/c1cccnc1,,"inconclusive [rising, single point]"
Cc1cccnc1NCc1ccc(O)c2ncccc12,,"inconclusive [rising, single point]"
COc1ccc(S(=O)(=O)N2CCC(C(=O)NCc3ccncc3)CC2)cc1Cl,inactive: -0.255%,
c1csc(-c2ccc3ccccc3n2)c1,inactive: 0.332%,
O=C(CCC(=O)N(CC(=O)NC1CCCCC1)Cc1cccs1)Nc1nccs1,inactive: -0.831%,

Structure (SMILES),activation,Potency
Cc1cccc(NC(=S)N/N=C/c2cccc([N+](=O)[O-])c2)c1,,"inconclusive [rising, single point]"
COc1ccccc1Nc1c2ccccc2nc2ccccc12,inactive: 0.232%,
Nc1nc(-c2ccc(-c3ccccc3)cc2)cs1,inactive: 0.0909%,
COc1cc2c(cc1OC)C1O[C@](c3ccsc3)(C2)Oc2c1c(=O)oc1ccc(F)cc21,inactive: 6.76% [at 9.22 µM],
COCCCNC(=S)N/N=C/c1ccc(OC)c(Br)c1,,"inconclusive [rising, single point]"
COc1ccc(NC(=O)C2CCN(C(=O)Nc3ccccc3)CC2)cc1S(=O)(=O)N(C)C,,"inconclusive [rising, single point]"
CCN(Cc1ccc2c(c1)OCCO2)C(=O)CN1C(=O)NC2(CCc3ccccc32)C1=O (configuration not stated),,"inconclusive [rising, single point]"
C[C@H](CO)N1C[C@H](C)[C@@H](CN(C)Cc2ccccc2)Oc2c(NC(=O)Cc3ccccc3)cccc2C1=O,,"inconclusive [activator, partial curve]"
CC(C)(C)NC(=O)C(c1ccc(F)cc1)N(Cc1ccccc1Cl)C(=O)c1ccn[nH]1 (configuration not stated),,active: 1 µM
CC1=NN(C(N)=S)C(=O)C1N=Nc1ccc(F)cc1 (configuration not stated),,active: 2.51 µM
Oc1c(CN2CCOCC2)cc(COCc2ccccc2)c2cccnc12,,active: 5.8 µM
O=C(Nc1nc2ccccc2[nH]1)c1ccccc1O,inactive: 0.101%,
CCOC(=O)C1=C(C)N(c2ccc(C)cc2)C(=O)/C1=C\c1ccc(O)c(OC)c1,,"inconclusive [rising, single point]"
Cc1ccc(/C=C/C(=O)c2ccccc(=O)c2O)c(C)c1,,"inconclusive [rising, single point]"
COc1ccc2c(c1)OC[C@H]1[C@H]2N2C(=O)c3ccc(C)cc3NC(=O)[C@@]2(C)[C@H]1c1ccccc1,,"inconclusive [rising, full curve, poor fit]"
CCOC(=O)c1c(NC(=O)CSc2cccc[n+]2[O-])sc(C(=O)Nc2ccccc2)c1C,,"inconclusive [rising, single point]"
C/C(=N\NC(=S)NC(C)C)c1ccccc1,,"inconclusive [rising, single point]"
CCNC(=S)NNc1ccccc1,,"inconclusive [rising, single point]"
COCCNC(=S)N/N=C(\C)CCc1ccc2c(c1)OCO2,,"inconclusive [rising, single point]"
Cc1cc(C)n(-c2nc(NC(C)C)nc(NC(C)C)n2)n1,,active: 12.6 µM
Cc1ccc2c(c1)[C@H]1[C@H](CO2)[C@H](c2ccccc2)[C@]2(C)C(=O)Nc3cc(F)ccc3C(=O)N12,,"inconclusive [rising, partial curve, poor fit]"
C/C(CCc1ccccc1)=N/NC(=O)C(=O)NC(C)c1ccccc1 (configuration not stated),,"inconclusive [rising, single point]"
Cc1ccc(C)c(-n2c(SCC(=O)O)nc3sc4c(c3c2=O)CCCC4)c1,,"inconclusive [rising, single point]"
CCOc1ccc(/C(CCC(=O)O)=N/NC(=S)NCCc2ccccc2)cc1,,"inconclusive [rising, single point]"
C#CCn1c(=NC(=O)c2ccco2)sc2cccc(Cl)c21,inactive: 0.136%,
COc1ccc(C(=O)NCC(=O)N/N=C/C(C)=C/c2ccccc2)cc1OC,,"inconclusive [rising, single point]"

Structure (SMILES),activation,Potency
COc1cc(SSc2cc(OC)cc([N+](=O)[O-])c2N)c(N)c([N+](=O)[O-])c1,,active: 14.1 µM
C/C(Cn1cnc([N+](=O)[O-])n1)=N\NC(=O)c1ccncc1,inactive: -0.44%,
CC(=O)Nc1ccc(S(=O)(=O)N2CCC(c3nnc(-c4ccc(C)cc4)o3)CC2)cc1,,"inconclusive [rising, single point]"
CC(c1ccccc1)n1c(-c2ccc(C(C)(C)C)cc2)n[nH]c1=S (configuration not stated),,"inconclusive [rising, single point]"
CCCCn1c(Cc2ccccc2)n[nH]c1=S,,"inconclusive [rising, single point]"
C=CCOc1c(Br)cc(CNc2ccc(NC(=O)C(C)C)c(OC)c2)cc1OCC,,"inconclusive [rising, single point]"
S=C(NCCN1CCOCC1)N/N=C/c1cccs1,,"inconclusive [rising, single point]"
O=C(Nc1nnc(CSCc2ccc(Cl)cc2)s1)c1cccc([N+](=O)[O-])c1,inactive: -1.31%,
CN(C)c1ccc(-c2nnc(-c3cccs3)o2)cc1,inactive: -0.178%,
Cc1ccc(Nc2c(-c3ccc(N4CCOCC4)cc3)nc3ncccn23)c(C)c1,inactive: -0.971%,
COc1cc(NC(=S)N2CCN(Cc3ccccc3)CC2)cc(OC)c1,inactive: 0.116%,
O=C(N/N=C/C(Br)=C\c1ccccc1)c1n[nH]c2c1CCC2,,"inconclusive [rising, single point]"
c1c2c(cc3sc(N4CCOCC4)nc13)OCCO2,inactive: -0.765%,
Cc1cccnc1NC(=O)c1ccc(Cl)c(S(=O)(=O)N2CCCCCC2)c1,inactive: 5.76%,
CCc1nnc(NC(=O)c2ccc3ccccc3n2)s1,,"inconclusive [activator, full curve]"
O=C(Oc1c(Cl)cc(Cl)c2cccnc12)c1ccco1,,"inconclusive [rising, single point]"
C/C(CC1CC2=C(CC1(C)C)C(C)(C)CCC2)=N\NC(N)=S (configuration not stated),,"inconclusive [rising, single point]"
O=C(/C=C/c1ccccc1)/C=C/c1ccccc1,,"inconclusive [rising, single point]"
O=C(Oc1ccccc1)c1cccc2cccnc12,inactive: 9.04%,
O=C(CS(=O)(=O)c1ccccc1)Nc1nc2ccccc2s1,,"inconclusive [rising, single point]"
Cc1noc(C)c1COc1cccc(C(=O)Nc2ccccc2N2CCOCC2)c1,,"inconclusive [rising, single point]"
COc1ccc(S(=O)(=O)Nc2cccc(S(=O)(=O)N3CCCCCC3)c2)cc1,inactive: -0.365%,
Cc1cc(Cl)ccc1NC(=S)Nc1ccccn1,,"inconclusive [rising, single point]"
COc1ccc(C)cc1S(=O)(=O)Nc1ccc(F)c(Cl)c1,inactive: 0.342%,
COc1cccc(N=Nc2ccc3cccnc3c2O)c1,inactive: 2.82%,
